Results on 89 compounds are retold here after PubChem BioAssay AID463173 (ICCB-Longwood Screening Facility, Harvard Medical School, 2010).

Hit rate of the full screen: of about 52,000 compounds, about 4,300 (8.3%) were called active. Cut-off read from the data, not from the text of the source: active = survival mostly below about 52% (no sharp cut-off); inactive = mostly above about 56%. This is one part of the list.

The test relates to DeltatarO mutant. The test can be described thus: S. aureus survival, RN4220 and DeltatarO strains – OD600, teichoic acid synthesis inhibitors, primary screen (AID 463173). The following applies: S. aureus RN4220 wild type/DeltatarO growth, OD600, 18 h, hits give low values, screened at 18.75 µg/mL (by protocol).
Turning to `Cc1ccc(Cl)cc1N1CCN(C(=O)CCCn2c(=O)[nH]c3ccc(Br)cc3c2=O)CC1`, the survival was active: 29%.

For the compound `O=C(CNCc1ccco1)Nc1cccc(OC(F)(F)F)c1`, the survival is inactive: 99%. To `CCc1ccccc1NC(=O)C1CCN(c2cnccn2)CC1` belongs inactive: 43%; to `O=C(NCc1ccccc1Cl)c1ccc(Cn2c(SCc3ccccc3)nc3cccnc32)cc1`, inactive: 72%. To `Cc1ccccc1Cn1c2ccccc2c2cnn(CC(=O)NCC(C)c3ccccc3)c(=O)c21` (centres undefined) belongs inactive: 79%. To `CCc1ccccc1NC(=O)c1ccc2c(SCC(=O)O)c3c(nc2c1)CCC3` belongs inactive: 85%.

Consider `CSc1ccc(CCNC(=O)C(C)n2nc(C)c3sc4ccccc4c3c2=O)cc1` (centres undefined), for which the survival is inactive: 52%. The same measure for `CCOC(=O)C1CCN(C(=O)c2ccc(NC(=O)c3nsc4ccccc34)cc2)CC1`: inactive: 109%; for `CS(=O)(=O)N(CC(=O)Nc1ccc2c(c1)OCCO2)c1ccccc1`: inactive: 103%. To `COc1cc(OC)c(NC(=O)c2nn(-c3ccc(C)cc3)c(=O)c3c2c2ccccc2n3C)cc1Cl` belongs inactive: 97%; to `O=C(Nc1cccc(C(=O)N2CCN(c3cccc(Cl)c3)CC2)c1)c1nsc2ccccc12`, inactive: 94%. For `COc1ccc(OC)c(Nc2ncnc3c2nc2n3CCCC2)c1`, the survival is inactive: 78%. The same measure for `COCCCn1c(=N)c(C(=O)NCc2cccnc2)cc2c(=O)n3cc(C)ccc3nc21`: inactive: 74%; for `C=CCN(CC=C)C(=O)C(C)N1CCN(C2CCCCC2)CC1` (centres undefined): inactive: 88%; for `CCOc1ccc(NC(=O)c2nc3nc(C)cc(C(F)F)n3n2)cc1`: inactive: 60%. To `CCc1nnc(SCc2ccc(OC)cc2)c2cc3sc(C)cc3n12` belongs inactive: 92%; to `O=C(CCn1ccc2cc(S(=O)(=O)N3CCCC3)ccc21)NCc1cccc(Cl)c1`, active: 17%. With `Cc1cc(C(=O)NCc2cccc(Br)c2)c2c(C)nn(-c3ccccc3)c2n1`, the survival was inactive: 108%.

For the compound `CC(=O)N1c2ccc(S(=O)(=O)NCC3CCC(C(=O)Nc4ccc(C)c(C)c4)CC3)cc2CC1C` (centres undefined), the survival was inactive: 98%.

On to `CCn1cc(C(=O)NCCc2ccc(C)cc2)c(=O)c2cc(S(=O)(=O)N3CCc4ccccc4C3)ccc21`, for which the survival is inactive: 67%. `CC(C(=O)O)N1CCCC1` (centres undefined): the survival was inactive: 94%. For the compound `O=C(Nc1c(-c2ccccc2)nc2ccccn12)c1ccccc1F`, the survival is inactive: 48%. In the case of `Cc1ccc(-c2noc(-c3cc(-c4ccc(F)cc4)n[nH]3)n2)cc1`, the survival is inactive: 101%. To `Cc1cc(C)cc(NC(=O)CNS(=O)(=O)c2ccc3nc(C)sc3c2)c1` belongs inactive: 74%; to `O=c1[nH]c2ccc(Cl)cc2c(-c2ccccc2)c1N1CCOCC1`, inactive: 65%; to `CC(=O)c1ccc(N2CCN(C(=O)CCn3cnc4onc(-c5ccc(F)cc5)c4c3=O)CC2)cc1`, active: -5%. To `CC(Sc1nc(-c2ccccc2)cc(C(F)(F)F)n1)C(=O)N1CCCC1` (centres undefined) belongs inactive: 101%. For `CCOC(=O)c1ccc(NC(=O)CSc2nccn2-c2cc(C)cc(C)c2)cc1`, the survival is inactive: 67%. As for `CCOc1ccccc1NC(=O)Nc1cc2c(cc1N1CCCCC1)n(CC)c(=O)n2CC`, the survival was inactive: 96%. The same measure for `O=C1CC(c2ccc(F)cc2)c2c(c3ccccc3[nH]c2=O)O1` (centres undefined): inactive: 65%. To `CCOc1ccccc1CNCc1c(C(=O)O)n(Cc2ccc(F)cc2)c2cc(C)ccc12` belongs inactive: 85%.

`CCc1cc2c(cc3c(=O)n(CC(=O)NCc4cc(Br)ccc4OC)ncn32)s1`: the survival is inactive: 111%. To `CCN(CC)S(=O)(=O)c1ccc2oc(C(=O)Nc3cc(C)ccc3OC)c(C)c2c1` belongs inactive: 80%; to `CN1C(=O)Cc2cc(S(=O)(=O)CCC(=O)Nc3ccc(OC(F)(F)F)cc3)ccc21`, inactive: 71%; to `CCC(=O)OCCn1c(=O)c2ccccc2c2ccccc2c1=O`, inactive: 91%. `Cc1ccc(S(=O)(=O)N2CCCC2C(N)=O)cc1` (centres undefined): the survival is inactive: 59%. The same measure for `Cc1ccc(NC(=O)CN2C(=O)c3ccccc3Sc3ccc(C(=O)N4CCOCC4)cc32)c(Cl)c1`: active: -5%; for `CCN(C(=O)C1CCCN(c2ncnc3c2nc2n3CCCCC2)C1)c1cccc(C)c1` (centres undefined): inactive: 75%; for `Cc1ccc(NC(=O)c2ncoc2-c2ccco2)cc1Cl`: inactive: 91%.

For the compound `Cc1cccc(C)c1NC(=O)Cn1c(SCC(=O)NCc2ccccc2)nc2ccccc21`, the survival is inactive: 87%. The same measure for `CCOC(=O)c1[nH]c(C)c(CCC(=O)Nc2cccc(SC)c2)c1C`: inactive: 67%; for `COc1ccc2cc(CNc3ccc(OC)c(OC)c3)c(=O)n(CC(=O)Nc3ccccc3F)c2c1`: inactive: 120%; for `CCOc1ccc(NC(=O)C2CCN(S(=O)(=O)c3c(C)noc3/C=C/c3cccs3)CC2)cc1`: inactive: 97%. To `CCOc1ccc(-c2nnc(SCC(=O)c3ccccc3)n2-c2ccccc2)cc1` belongs inactive: 136%; to `Cn1cccc1-c1cc2n(n1)CCC(=O)N2CCCC(=O)NCc1ccc(F)cc1`, inactive: 88%. The same measure for `COc1ccc(C(=O)Nc2ccc3oc(-c4ccc5ccccc5c4)nc3c2)cc1Br`: inactive: 63%; for `N#CCn1c2ccc(Cl)cc2c2nc3ccccc3nc21`: inactive: 108%.

For `COc1cccc(C(=O)N(Cc2ccco2)c2ccccn2)c1`, the survival is inactive: 97%. The same measure for `O=C(CNC(=O)c1ccccc1F)OCc1cc(=O)n2nc(C3CCCCC3)sc2n1`: inactive: 98%. Regarding `CC(C)CCNC(=O)c1ccc2c(c1)N(Cc1ccccc1F)C(=O)c1ccccc1S2(=O)=O`, the survival is inactive: 76%. The same measure for `O=S(=O)(c1ccc(-c2csc(=Nc3ccc(OC(F)(F)Cl)cc3)n2CCCO)cc1)N1CCCC1`: inactive: 159%. Turning to `COc1ccccc1C(=O)NCC(=O)O`, the survival was inactive: 76%. `Fc1cccc(Cl)c1CNCCSc1nnnn1-c1ccccc1`: the survival was inactive: 79%.

In the case of `Cc1ccc(Cl)cc1NC(=O)NCc1cccn1Cc1ccc(F)cc1`, the survival is inactive: 104%.

On to `O=C(Nc1ccccc1O)c1cc(S(=O)(=O)N2CCCC2)ccc1Cl`, for which the survival was inactive: 47%. To `COc1ccc2c(c1)c1c(c(=O)n(-c3ccc(OC)c(OC)c3)c(=O)n1CC(=O)N1CCCC1)n2C` belongs inactive: 122%; to `Cc1ccc(CNC(=O)CSc2ncc(S(=O)(=O)c3ccc(C)c(Cl)c3)c(=O)[nH]2)cc1`, inactive: 77%; to `Cc1ccc(NC(=O)N2CCN(c3nnc(C)c4c(C)n(-c5ccc(Cl)cc5)nc34)CC2)c(C)c1`, inactive: 101%. The same measure for `COC(=O)c1ccccc1NC(=O)c1cc(C)nc2c1c(C)nn2-c1ccc(C)cc1`: inactive: 75%; for `Nc1ccc(N2CCOCC2)c(N)c1`: inactive: 74%; for `COc1ccc(OC)c(NC(=O)CSC2=Nc3ccccc3C3=NC(CC(=O)NCc4ccc(F)cc4)C(=O)N23)c1` (centres undefined): active: 52%. To `COc1cc(OC)c(NC(=O)n2ncc3cc(Cl)ccc32)cc1Cl` belongs inactive: 100%. As for `COc1cccc(OCC(=O)NC2CC(=O)N(c3ccc4c(c3)OCCO4)C2)c1` (centres undefined), the survival is inactive: 81%. To `COc1cc(Cl)c(C)cc1NC(=O)CSc1nc2c(c(=O)[nH]1)CCCC2` belongs inactive: 58%.

Regarding `CCOC(=O)c1cccc(NC(=O)CC2C(=O)N(c3ccc(C)cc3)C(=O)N2Cc2cccc(OC)c2)c1` (centres undefined), the survival was inactive: 115%.

As to `CN(C)c1ccc(CNC(=O)c2cnc3sc(N4CCCCCC4)nn3c2=O)cc1`, the survival is inactive: 102%. To `COC(=O)N1CCCc2cc(S(=O)(=O)N3CCN(c4ccccc4)CC3)ccc21` belongs inactive: 75%. To `CCCCNC(=O)CCCn1c(=O)c2ccccc2n(Cc2c(C)cc(C)cc2C)c1=O` belongs inactive: 90%.

Turning to `Cc1ccc(C)c(Cn2c(=O)n(CCC(=O)NCc3ccc4c(c3)OCO4)c(=O)c3sccc32)c1`, the survival was inactive: 65%. For `Cc1cccc(Cc2c(C)nc3nc(SCc4ccccc4Cl)nn3c2C)c1`, the survival was active: -9%. The same measure for `COc1ccc(-c2nc(C)c(CCNC(=O)c3c(F)cccc3F)s2)cc1`: inactive: 84%; for `CCOc1ccc(OCC)c(NC(=O)CCc2nc3cccnc3n2Cc2cccs2)c1`: inactive: 73%.

As to `O=C(NN1C(=O)C2C3c4ccccc4C(c4ccccc43)C2C1=O)C1CC1` (centres undefined), the survival is inactive: 104%. The same measure for `Cc1c(/C=C(\C#N)C(=O)Nc2cccc(Cl)c2)c2ccccc2n1Cc1ccccc1`: inactive: 80%.

As to `Cn1c(=O)c2c(SCC(=O)NCc3ccc(F)cc3)nc(-c3ccccc3Cl)nc2n(C)c1=O`, the survival is inactive: 76%. To `CC1CCN(CC(=O)Nc2ccc3ccccc3c2)CC1` belongs inactive: 107%.

`Cc1ccc(NS(=O)(=O)c2ccc3c(c2)[C@H]2C=CC[C@H]2[C@@H](c2ccc(F)cc2)N3)cc1C`: the survival was inactive: 58%. Turning to `CCCC(c1nnnn1Cc1ccccc1)N1CCN(c2ccccc2)CC1` (centres undefined), the survival is active: 42%.

As for `COc1ccc(C2CC(=O)Nc3c2c(=O)n(C)c2nc4ccccc4n32)cc1` (centres undefined), the survival was inactive: 92%.

As to `COc1ccc(-c2noc(-c3ccc(C)cc3Cl)n2)cc1OC`, the survival is inactive: 136%. The same measure for `CCOc1ccc(NC(=O)c2sc3ccccc3c2Cl)cc1`: inactive: 68%. To `COc1ccc(C(=O)c2cn(Cc3cccc(C)c3)c3cc4c(cc3c2=O)OCO4)cc1` belongs inactive: 86%; to `CCOC(=O)c1[nH]c(C)c(C(=O)NCc2cccc(OC)c2)c1C`, inactive: 70%; to `CCc1ccccc1NC(=O)Cn1c(=O)n(CC(=O)NCCc2ccccc2)c(=O)c2ccccc21`, inactive: 91%. To `COc1ccc(CC(=O)NCCc2csc(-c3ccc(C(F)(F)F)cc3)n2)cc1` belongs active: -5%; to `COc1cc(Cl)c(C)cc1NC(=O)CSc1cc(-c2ccccc2)nc(C)n1`, inactive: 53%; to `Cc1ccccc1C1=CCN(c2ncc(NC(=O)c3ccc(Cl)cc3)cc2C(=O)O)CC1`, inactive: 95%. As for `Cc1nc2nc(SCC(=O)NCCc3ccc(Cl)cc3)nn2c(C)c1Cc1ccccc1Cl`, the survival was inactive: 99%. The same measure for `Cn1c(=O)[nH]c(=O)c2[nH]c(NCCO)nc21`: inactive: 80%.
